We go through 40 sequences from PMC12820563.

This is one part of the list. The list includes weakly bound sequences.

For this experiment, the target named is T1, MBP-FoxP3dN (UniProt Q99JB6).
T1 sequence: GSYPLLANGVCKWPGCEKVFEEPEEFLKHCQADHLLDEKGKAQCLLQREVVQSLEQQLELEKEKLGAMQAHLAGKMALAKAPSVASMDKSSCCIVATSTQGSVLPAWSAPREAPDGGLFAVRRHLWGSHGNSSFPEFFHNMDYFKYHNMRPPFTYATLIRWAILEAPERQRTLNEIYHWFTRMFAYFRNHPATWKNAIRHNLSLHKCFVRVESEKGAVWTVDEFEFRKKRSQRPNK
Nature of the experiment: PD-seq (MBP pull-down with sequencing). The settings on record: 20 mM Tris-HCl pH 7.5, 100 mM NaCl, 1.5 mM MgCl2, 0.4 uM protein, 0.1 uM dsDNA library, 30 min, room temperature, amylose pull-down; high values mean tight binding; double strand, one strand shown.
Take “GATGATTGTTCTCCCAGCTGATGAATTCTGTTGCTCGAGTAAACAAATTTTCCTAATCTTTCTGTTCAAGCGCCATCTAC”: the binding signal (RPM ratio (pull-down/input)) worked out at 3.78. With “GATGATTGTTCTCCCAGCTGATGAATTGCGCTTGTCGAGTAAACAAATTTTCCTAATCTTTCTGTTCAAGCGCCATCTAC” the figure was 4.45; with “GATGATTGTTCTCCCAGCTGATGAATTCCGGTTGTCGAGTAAACAAATTTTCCTAATCTTTCTGTTCAAGCGCCATCTAC”, 1.05.

For “GATGATTGTTCTCCCAGCTGATGAATTGGACCTCTCGAGTAAACAAATTTTCCTAATCTTTCTGTTCAAGCGCCATCTAC”, the binding signal (RPM ratio (pull-down/input)) came to 0.349. To “GATGATTGTTCTCCCAGCTGATGAATTAGCAGGATCGAGTAAACAAATTTTCCTAATCTTTCTGTTCAAGCGCCATCTAC” belongs 0.262. With “GATGATTGTTCTCCCAGCTGATGAATTGATATTTTCGAGTAAACAAATTTTCCTAATCTTTCTGTTCAAGCGCCATCTAC”, the binding signal (RPM ratio (pull-down/input)) is 0.879.

Take “GATGATTGTTCTCCCAGCTGATGAATTATCTCTATCGAGTAAACAAATTTTCCTAATCTTTCTGTTCAAGCGCCATCTAC”: the binding signal (RPM ratio (pull-down/input)) is 0.348. With “GATGATTGTTCTCCCAGCTGATGAATTGTCAGAGTCGAGTAAACAAATTTTCCTAATCTTTCTGTTCAAGCGCCATCTAC” the figure was 0.234; with “GATGATTGTTCTCCCAGCTGATGAATTGTTGTAATCGAGTAAACAAATTTTCCTAATCTTTCTGTTCAAGCGCCATCTAC”, 2.72. To “GATGATTGTTCTCCCAGCTGATGAATTAAACAGTTCGAGTAAACAAATTTTCCTAATCTTTCTGTTCAAGCGCCATCTAC” belongs 0.58; to “GATGATTGTTCTCCCAGCTGATGAATTCAGATTTTCGAGTAAACAAATTTTCCTAATCTTTCTGTTCAAGCGCCATCTAC”, 0.454; to “GATGATTGTTCTCCCAGCTGATGAATTGCCAAGATCGAGTAAACAAATTTTCCTAATCTTTCTGTTCAAGCGCCATCTAC”, 0.4.

With “GATGATTGTTCTCCCAGCTGATGAATTCTCTTACTCGAGTAAACAAATTTTCCTAATCTTTCTGTTCAAGCGCCATCTAC”, the binding signal (RPM ratio (pull-down/input)) was found to be 0.303.

For “GATGATTGTTCTCCCAGCTGATGAATTCAAGGTGTCGAGTAAACAAATTTTCCTAATCTTTCTGTTCAAGCGCCATCTAC”, the binding signal (RPM ratio (pull-down/input)) worked out at 0.471. Turning to “GATGATTGTTCTCCCAGCTGATGAATTGCTACCCTCGAGTAAACAAATTTTCCTAATCTTTCTGTTCAAGCGCCATCTAC”, the binding signal (RPM ratio (pull-down/input)) amounted to 0.591. In the case of “GATGATTGTTCTCCCAGCTGATGAATTGCCTAGCTCGAGTAAACAAATTTTCCTAATCTTTCTGTTCAAGCGCCATCTAC”, the binding signal (RPM ratio (pull-down/input)) came to 0.397.

Take “GATGATTGTTCTCCCAGCTGATGAATTTCAACTTTCGAGTAAACAAATTTTCCTAATCTTTCTGTTCAAGCGCCATCTAC”: the binding signal (RPM ratio (pull-down/input)) is 0.463. Consider “GATGATTGTTCTCCCAGCTGATGAATTTGCTGGGTCGAGTAAACAAATTTTCCTAATCTTTCTGTTCAAGCGCCATCTAC”, for which the binding signal (RPM ratio (pull-down/input)) turned out to be 3.21.

Consider “GATGATTGTTCTCCCAGCTGATGAATTCCTTCGGTCGAGTAAACAAATTTTCCTAATCTTTCTGTTCAAGCGCCATCTAC”, for which the binding signal (RPM ratio (pull-down/input)) was found to be 0.174. For the sequence “GATGATTGTTCTCCCAGCTGATGAATTTTAAACGTCGAGTAAACAAATTTTCCTAATCTTTCTGTTCAAGCGCCATCTAC”, the binding signal (RPM ratio (pull-down/input)) stood at 0.285. To “GATGATTGTTCTCCCAGCTGATGAATTTTGAAAATCGAGTAAACAAATTTTCCTAATCTTTCTGTTCAAGCGCCATCTAC” belongs 0.267; to “GATGATTGTTCTCCCAGCTGATGAATTCATTTGATCGAGTAAACAAATTTTCCTAATCTTTCTGTTCAAGCGCCATCTAC”, 0.502; to “GATGATTGTTCTCCCAGCTGATGAATTTACGGATTCGAGTAAACAAATTTTCCTAATCTTTCTGTTCAAGCGCCATCTAC”, 0.469.

Turning to “GATGATTGTTCTCCCAGCTGATGAATTCTTGGAGTCGAGTAAACAAATTTTCCTAATCTTTCTGTTCAAGCGCCATCTAC”, the binding signal (RPM ratio (pull-down/input)) stood at 0.21. Take “GATGATTGTTCTCCCAGCTGATGAATTTTTACCCTCGAGTAAACAAATTTTCCTAATCTTTCTGTTCAAGCGCCATCTAC”: the binding signal (RPM ratio (pull-down/input)) amounted to 0.202.

“GATGATTGTTCTCCCAGCTGATGAATTCTCCAGGTCGAGTAAACAAATTTTCCTAATCTTTCTGTTCAAGCGCCATCTAC”: the binding signal (RPM ratio (pull-down/input)) is 0.162.

As to “GATGATTGTTCTCCCAGCTGATGAATTGTGTATATCGAGTAAACAAATTTTCCTAATCTTTCTGTTCAAGCGCCATCTAC”, the binding signal (RPM ratio (pull-down/input)) is 6.5. With “GATGATTGTTCTCCCAGCTGATGAATTGTCTGATTCGAGTAAACAAATTTTCCTAATCTTTCTGTTCAAGCGCCATCTAC” the figure was 0.434; with “GATGATTGTTCTCCCAGCTGATGAATTAATCTGTTCGAGTAAACAAATTTTCCTAATCTTTCTGTTCAAGCGCCATCTAC”, 0.31. To “GATGATTGTTCTCCCAGCTGATGAATTGAACCGCTCGAGTAAACAAATTTTCCTAATCTTTCTGTTCAAGCGCCATCTAC” belongs 0.274. To “GATGATTGTTCTCCCAGCTGATGAATTACCCGCTTCGAGTAAACAAATTTTCCTAATCTTTCTGTTCAAGCGCCATCTAC” belongs 0.31. As for “GATGATTGTTCTCCCAGCTGATGAATTTGAAGCTTCGAGTAAACAAATTTTCCTAATCTTTCTGTTCAAGCGCCATCTAC”, the binding signal (RPM ratio (pull-down/input)) was 0.387. Consider “GATGATTGTTCTCCCAGCTGATGAATTATGTATCTCGAGTAAACAAATTTTCCTAATCTTTCTGTTCAAGCGCCATCTAC”, for which the binding signal (RPM ratio (pull-down/input)) was found to be 5.75.

Regarding “GATGATTGTTCTCCCAGCTGATGAATTTGTGATGTCGAGTAAACAAATTTTCCTAATCTTTCTGTTCAAGCGCCATCTAC”, the binding signal (RPM ratio (pull-down/input)) turned out to be 5.62. With “GATGATTGTTCTCCCAGCTGATGAATTTACAGTGTCGAGTAAACAAATTTTCCTAATCTTTCTGTTCAAGCGCCATCTAC” the figure was 0.75; with “GATGATTGTTCTCCCAGCTGATGAATTCGCTACGTCGAGTAAACAAATTTTCCTAATCTTTCTGTTCAAGCGCCATCTAC”, 0.43. To “GATGATTGTTCTCCCAGCTGATGAATTTTAAGTTTCGAGTAAACAAATTTTCCTAATCTTTCTGTTCAAGCGCCATCTAC” belongs 0.44; to “GATGATTGTTCTCCCAGCTGATGAATTCGAAGGATCGAGTAAACAAATTTTCCTAATCTTTCTGTTCAAGCGCCATCTAC”, 0.213; to “GATGATTGTTCTCCCAGCTGATGAATTCATACCATCGAGTAAACAAATTTTCCTAATCTTTCTGTTCAAGCGCCATCTAC”, 0.563. With “GATGATTGTTCTCCCAGCTGATGAATTAAAGGCCTCGAGTAAACAAATTTTCCTAATCTTTCTGTTCAAGCGCCATCTAC” the figure was 0.548.
